Six compounds from the supplement of paper PMC9174493 can be followed below.

The structures appear in SMILES notation. The list shows a part of the results. Single values of this set are uncertain. Values with irradiation are relative to irradiated vehicle.

The test system of assay [1] is A549-Dual. The experiment in a line: NF-kB reporter (SEAP) activity, viability-corrected, relative to vehicle (fold change vs vehicle); higher = more activation of STING-IRF / NF-kB immune response reporter.
Assay [2] relates to A549-Dual. The assay can be described thus: ISRE reporter (Lucia luciferase) activity, viability-corrected, relative to vehicle (fold change vs vehicle); higher = more activation of STING-IRF / NF-kB immune response reporter.
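For NF-kB reporter (SEAP) activity, viability-corrected, relative to vehicle in this document: viability correction based on the alamar blue assay, with concentrations leaving 10% survival or less dropped.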

For the compound `COc1cc2ncnc(Nc3ccc(F)c(Cl)c3)c2cc1NC(=O)/C=C/CN1CCCCC1`, the NF-kB reporter turned out to be 1.05 in the assay on A549-Dual [1] (0.1 µM, irradiation: 8 Gy/4 fr); 1.04 with A549-Dual [1] (0.1 µM, irradiation: none); 0.978 in the assay on A549-Dual [1] (0.3 µM, irradiation: 8 Gy/4 fr); 1.1 in the assay on A549-Dual [1] (0.3 µM, irradiation: none); 0.996 in the assay with A549-Dual [1] (1 µM, irradiation: 8 Gy/4 fr); 1.29 in the assay with A549-Dual [1] (1 µM, irradiation: none). Moreover, the NF-kB reporter with A549-Dual [1] (3 µM, irradiation: 8 Gy/4 fr) turned out to be 1.21; in the assay with A549-Dual [1] (3 µM, irradiation: none), 1.09; in the assay with A549-Dual [1] (10 µM, irradiation: 8 Gy/4 fr) it was 0.982; in the assay on A549-Dual [1] (10 µM, irradiation: none) it was 0.985. For the same compound, the ISRE reporter in the assay with A549-Dual [2] (0.1 µM, irradiation: 8 Gy/4 fr) was 0.953; with A549-Dual [2] (0.1 µM, irradiation: none), 0.86; with A549-Dual [2] (0.3 µM, irradiation: 8 Gy/4 fr), 0.999; in the assay with A549-Dual [2] (0.3 µM, irradiation: none) it was 0.874; in the assay on A549-Dual [2] (1 µM, irradiation: 8 Gy/4 fr) it was 1.05; in the assay with A549-Dual [2] (1 µM, irradiation: none), 0.807. For the same compound, the ISRE reporter came to 0.967 in the assay with A549-Dual [2] (3 µM, irradiation: 8 Gy/4 fr); 0.889 in the assay on A549-Dual [2] (3 µM, irradiation: none); 1.03 in the assay with A549-Dual [2] (10 µM, irradiation: 8 Gy/4 fr); 1.04 in the assay on A549-Dual [2] (10 µM, irradiation: none).
In the case of `Cc1cnc(NC(=O)C2=C(O)c3ccccc3S(=O)(=O)N2C)s1` [Meloxicam], the NF-kB reporter in the assay on A549-Dual [1] (0.1 µM, irradiation: 8 Gy/4 fr) amounted to 0.745; with A549-Dual [1] (0.1 µM, irradiation: none) it was 0.479; with A549-Dual [1] (0.3 µM, irradiation: 8 Gy/4 fr), 0.486; in the assay on A549-Dual [1] (0.3 µM, irradiation: none), 0.61; with A549-Dual [1] (1 µM, irradiation: 8 Gy/4 fr) it was 0.526; with A549-Dual [1] (1 µM, irradiation: none), 0.53. The NF-kB reporter in the assay with A549-Dual [1] (3 µM, irradiation: 8 Gy/4 fr) stood at 0.442; in the assay with A549-Dual [1] (3 µM, irradiation: none), 0.563; in the assay with A549-Dual [1] (10 µM, irradiation: 8 Gy/4 fr), 0.429; in the assay on A549-Dual [1] (10 µM, irradiation: none), 0.519. For the same compound, the ISRE reporter is 0.871 in the assay with A549-Dual [2] (0.1 µM, irradiation: 8 Gy/4 fr); 0.68 in the assay on A549-Dual [2] (0.1 µM, irradiation: none); 0.585 in the assay on A549-Dual [2] (0.3 µM, irradiation: 8 Gy/4 fr); 0.883 in the assay on A549-Dual [2] (0.3 µM, irradiation: none); 0.545 in the assay on A549-Dual [2] (1 µM, irradiation: 8 Gy/4 fr); 0.872 with A549-Dual [2] (1 µM, irradiation: none). For the same compound, the ISRE reporter in the assay with A549-Dual [2] (3 µM, irradiation: 8 Gy/4 fr) worked out at 0.605; in the assay with A549-Dual [2] (3 µM, irradiation: none) it was 0.983; in the assay on A549-Dual [2] (10 µM, irradiation: 8 Gy/4 fr), 0.559; in the assay with A549-Dual [2] (10 µM, irradiation: none), 0.561.
With `Nc1nc(Cl)nc2c1ncn2C1OC(CO)C(O)C1F` (stereo not given) [Clofarabine], the NF-kB reporter in the assay on A549-Dual [1] (0.1 µM, irradiation: 8 Gy/4 fr) amounted to 0.935; in the assay on A549-Dual [1] (0.1 µM, irradiation: none) it was 0.904; in the assay on A549-Dual [1] (0.3 µM, irradiation: 8 Gy/4 fr), 1.14; in the assay on A549-Dual [1] (0.3 µM, irradiation: none) it was 1.63; with A549-Dual [1] (1 µM, irradiation: 8 Gy/4 fr), 1.47; in the assay with A549-Dual [1] (1 µM, irradiation: none) it was 2.91. Also, the NF-kB reporter came to 2.82 in the assay with A549-Dual [1] (3 µM, irradiation: 8 Gy/4 fr); 3.25 in the assay on A549-Dual [1] (3 µM, irradiation: none); 2.23 in the assay on A549-Dual [1] (10 µM, irradiation: 8 Gy/4 fr); 2.42 in the assay with A549-Dual [1] (10 µM, irradiation: none). The ISRE reporter in the assay on A549-Dual [2] (0.1 µM, irradiation: 8 Gy/4 fr) was 0.981; in the assay with A549-Dual [2] (0.1 µM, irradiation: none) it was 0.976; in the assay with A549-Dual [2] (0.3 µM, irradiation: 8 Gy/4 fr), 0.691; with A549-Dual [2] (0.3 µM, irradiation: none), 2.77; in the assay on A549-Dual [2] (1 µM, irradiation: 8 Gy/4 fr), 0.451; with A549-Dual [2] (1 µM, irradiation: none), 3.27. Also, the ISRE reporter in the assay on A549-Dual [2] (3 µM, irradiation: 8 Gy/4 fr) was found to be 0.7; with A549-Dual [2] (3 µM, irradiation: none) it was 3.36; in the assay with A549-Dual [2] (10 µM, irradiation: 8 Gy/4 fr), 0.546; with A549-Dual [2] (10 µM, irradiation: none), 2.13.
Turning to `CCOC(=O)c1c(N)sc2c1CCN(Cc1ccccc1)C2.Cl` [Tinoridine hydrochloride], the NF-kB reporter was 0.944 in the assay with A549-Dual [1] (0.1 µM, irradiation: 8 Gy/4 fr); 0.87 with A549-Dual [1] (0.1 µM, irradiation: none); 0.919 in the assay with A549-Dual [1] (0.3 µM, irradiation: 8 Gy/4 fr); 0.905 in the assay with A549-Dual [1] (0.3 µM, irradiation: none); 0.981 with A549-Dual [1] (1 µM, irradiation: 8 Gy/4 fr); 0.783 with A549-Dual [1] (1 µM, irradiation: none). Further, the NF-kB reporter worked out at 0.938 in the assay with A549-Dual [1] (3 µM, irradiation: 8 Gy/4 fr); 0.862 with A549-Dual [1] (3 µM, irradiation: none); 0.764 in the assay on A549-Dual [1] (10 µM, irradiation: 8 Gy/4 fr); 0.96 with A549-Dual [1] (10 µM, irradiation: none). For the same compound, the ISRE reporter in the assay on A549-Dual [2] (0.1 µM, irradiation: 8 Gy/4 fr) was determined as 0.897; in the assay on A549-Dual [2] (0.1 µM, irradiation: none), 0.646; with A549-Dual [2] (0.3 µM, irradiation: 8 Gy/4 fr) it was 0.869; in the assay with A549-Dual [2] (0.3 µM, irradiation: none) it was 0.564; with A549-Dual [2] (1 µM, irradiation: 8 Gy/4 fr) it was 0.684; in the assay on A549-Dual [2] (1 µM, irradiation: none) it was 0.664. In addition, the ISRE reporter with A549-Dual [2] (3 µM, irradiation: 8 Gy/4 fr) came out at 0.836; with A549-Dual [2] (3 µM, irradiation: none) it was 0.813; in the assay on A549-Dual [2] (10 µM, irradiation: 8 Gy/4 fr), 0.7; with A549-Dual [2] (10 µM, irradiation: none), 0.797.
On to `CC/C(=C(/CC)c1ccc(O)cc1)c1ccc(O)cc1` [Diethylstilbestrol], for which the NF-kB reporter was 0.99 in the assay with A549-Dual [1] (0.1 µM, irradiation: 8 Gy/4 fr); 1.09 in the assay on A549-Dual [1] (0.1 µM, irradiation: none); 1.05 in the assay on A549-Dual [1] (0.3 µM, irradiation: 8 Gy/4 fr); 0.968 in the assay with A549-Dual [1] (0.3 µM, irradiation: none); 0.885 in the assay on A549-Dual [1] (1 µM, irradiation: 8 Gy/4 fr); 1.02 with A549-Dual [1] (1 µM, irradiation: none). The NF-kB reporter with A549-Dual [1] (3 µM, irradiation: 8 Gy/4 fr) was found to be 1.08; in the assay with A549-Dual [1] (3 µM, irradiation: none), 0.883; in the assay on A549-Dual [1] (10 µM, irradiation: 8 Gy/4 fr), 1.06; with A549-Dual [1] (10 µM, irradiation: none), 1.04. For the same compound, the ISRE reporter with A549-Dual [2] (0.1 µM, irradiation: 8 Gy/4 fr) was found to be 1.18; with A549-Dual [2] (0.1 µM, irradiation: none) it was 1.15; in the assay with A549-Dual [2] (0.3 µM, irradiation: 8 Gy/4 fr), 1.11; with A549-Dual [2] (0.3 µM, irradiation: none) it was 1.05; in the assay with A549-Dual [2] (1 µM, irradiation: 8 Gy/4 fr), 0.939; in the assay with A549-Dual [2] (1 µM, irradiation: none), 1. Also, the ISRE reporter in the assay on A549-Dual [2] (3 µM, irradiation: 8 Gy/4 fr) turned out to be 1.17; with A549-Dual [2] (3 µM, irradiation: none), 1.07; in the assay with A549-Dual [2] (10 µM, irradiation: 8 Gy/4 fr), 1.25; with A549-Dual [2] (10 µM, irradiation: none), 1.37.
Consider `O=C(OCC1OC(OC(=O)c2cc(O)c(O)c(OC(=O)c3cc(O)c(O)c(O)c3)c2)C(OC(=O)c2cc(O)c(O)c(OC(=O)c3cc(O)c(O)c(O)c3)c2)C(OC(=O)c2cc(O)c(O)c(OC(=O)c3cc(O)c(O)c(O)c3)c2)C1OC(=O)c1cc(O)c(O)c(OC(=O)c2cc(O)c(O)c(O)c2)c1)c1cc(O)c(O)c(OC(=O)c2cc(O)c(O)c(O)c2)c1` (stereo not given) [Tannic acid], for which the NF-kB reporter came out at 1.1 with A549-Dual [1] (0.1 µM, irradiation: 8 Gy/4 fr); 1.17 in the assay on A549-Dual [1] (0.1 µM, irradiation: none); 0.896 in the assay on A549-Dual [1] (0.3 µM, irradiation: 8 Gy/4 fr); 1.59 in the assay on A549-Dual [1] (0.3 µM, irradiation: none); 1.51 in the assay on A549-Dual [1] (1 µM, irradiation: 8 Gy/4 fr); 1.23 in the assay on A549-Dual [1] (1 µM, irradiation: none). In addition, the NF-kB reporter in the assay with A549-Dual [1] (3 µM, irradiation: 8 Gy/4 fr) amounted to 1.88; in the assay on A549-Dual [1] (3 µM, irradiation: none), 2.85; in the assay with A549-Dual [1] (10 µM, irradiation: 8 Gy/4 fr), 1.7; in the assay on A549-Dual [1] (10 µM, irradiation: none), 2.07. Besides, the ISRE reporter in the assay with A549-Dual [2] (0.1 µM, irradiation: 8 Gy/4 fr) turned out to be 1.23; in the assay on A549-Dual [2] (0.1 µM, irradiation: none), 1.06; in the assay on A549-Dual [2] (0.3 µM, irradiation: 8 Gy/4 fr) it was 1.07; in the assay with A549-Dual [2] (0.3 µM, irradiation: none), 1.44; in the assay with A549-Dual [2] (1 µM, irradiation: 8 Gy/4 fr), 1.24; in the assay with A549-Dual [2] (1 µM, irradiation: none) it was 1.16. Besides, the ISRE reporter with A549-Dual [2] (3 µM, irradiation: 8 Gy/4 fr) was 1.08; in the assay with A549-Dual [2] (3 µM, irradiation: none), 9.89; in the assay with A549-Dual [2] (10 µM, irradiation: 8 Gy/4 fr), 0.32; in the assay with A549-Dual [2] (10 µM, irradiation: none), 0.777.
